Measurements: patent US20110097312A1, “ANTI-CANCER VACCINES” (BOARD OF REGENTS, THE UNIVERSITY OF TEXAS SYSTEM, priority 2008, published 2011)

Each sequence was assayed on peptide-loaded T2 cells (assay: Induction of primary CTL responses; cytotoxicity toward peptide-loaded T2 cells). Conditions: different donors and differing peptide concentrations.
Source text: Induction of Primary CTL responses to peptides. These peptides were next used to stimulate T cells specific for peptide-coated targets. PBMC from a normal healthy donor heterozygous for HL-A2.1 were stimulated with peptide-pulsed T2 cells. The T2 cell line has been used by others as an antigen presenting cell for the generation of peptide-specific CTL. Briefly, T2 cells (which co-express the costimulatory molecule B7.1) were washed 3 times in serum-free RPMI culture media supplemented with penicillin/streptomycin and glutamine (CM) and incubated with peptide at 20 μg/mL for 2 hr in CM. The peptide loaded T2 cells were then irradiated with 7500 cGy, washed once, and suspended with freshly isolated PBMC at a 1:1 ratio in CM supplemented with 10% human serum (HS) (Sigma, St. Louis, Mo.). After 7 days in culture, a second stimulation was performed and the following day, 60 IU/ml of recombinant human interleukin-2 (rhIL2) (Biosource International, Camarillo, Calif.) was added. After 14 days in culture a third stimulation was performed, followed on day 15 by addition of rhIL-2. A fourth stimulation was performed on day 21 followed on day 22 by the addition of rhIL2. After a total of 27 days in culture, the peptide-stimulated T cells were harvested and tested for peptide-specific cytotoxicity toward Calcein AM-labeled T2 cells, leukemia cell lines, and fresh human leukemia cells, as merely exemplary embodiments. Such studies are extrapolated to breast cancer cells using similar procedures.
The five MPO peptides discussed above were used to stimulate T cells specific for peptide-coated targets. PBMC from a normal healthy donor heterozygous for HLA-A2.1 were stimulated with peptide-pulsed T2 cells. The T2 cell line has been used by others as an antigen presenting cell for the generation of peptide-specific CTL. Briefly, T2 cells (which co-express the costimulatory molecule B7.1) were washed 3 times in serum-free RPMI culture media supplemented with penicillin/streptomycin and glutamine (CM) and incubated with peptide at concentrations ranging from 0.2 to 200 μg/mL for 2 hr in CM. […]

Row | Sequence | elicitation of peptide specific CTL lines
1 | SLWRRPFNV [MY1] | No peptide specific CTL lines could be elicited
2 | LLSYFKQPV [MY3] | No peptide specific CTL lines could be elicited
3 | LIQPFMFRL [MY5] | No peptide specific CTL lines could be elicited
